ChEMBL document CHEMBL4888484, “Replenishing the malaria drug discovery pipeline: Screening and hit evaluation of the MMV Hit Generation Library 1 (HGL1) against asexual blood stage Plasmodium falciparum ,using a nano luciferase reporter read-out” (2022)
The campaign covered roughly 150,000 compounds. About 540 (0.36%) showed an effect of 50% or more. The list shows a part of the results.

Tested on: Plasmodium falciparum
Test: Primary screen in NF54 nanoGlo assay, in single point, at 2uM, 72h; a lower Z score goes with more inhibition
Assay type: functional, Erythrocyte
Settings: timepoint 72 hour

SMILES | % Inhibition [%] | Z score
CC[C@H](NC(=O)CN1CCOCC1)c1cc(C)ccn1 | -6 | 0.82
CC1CCC(NC(=O)CCNS(C)(=O)=O)CC1 (stereo not drawn) | -7 | 1.4
Cn1nccc1C1CC(NC(=O)N2CCc3cccc(Cl)c3C2)CCO1 (stereo not drawn) | -1 | 0.12
COC[C@@H]1CCC[C@@H]1n1ccnc1-c1ccccc1C(F)(F)F | -2 | 0.4
COc1ccc(S(=O)(=O)Nc2ccc3c(c2)sc(=O)n3Cc2ccccc2)cc1OC | 4 | -0.51
Cc1ccccc1N1C[C@H](C)N(C(=O)c2c[nH]nc2-n2cnnn2)CC1=O | -13 | 2.18
COc1cccc(NC(=O)Nc2cc(C)c3nc(NS(=O)(=O)c4ccc(C)cc4)sc3c2)c1 | 32 | -3.62
CN(C)C[C@H]1CN(Cc2noc(C3CC3)n2)CCO1 | 3 | -0.6
CCC(=O)N1CCc2ccc(OCc3nc(C(=O)N(C)Cc4ccco4)cs3)cc2[C@@H]1c1ccc(F)cc1 | -7 | 0.64
Cc1c[nH]c(CN(C)C(=O)N[C@@H](C)CCC(C)C)n1 | -8 | 1.3
CCNC(=O)N(C)C[C@H]1COCCO1 | 1 | -0.16
CN1CCN(CCNC(=O)c2ccc(NC(=O)c3nnc(COc4ccc(F)cc4)s3)cc2)CC1 | -5 | 0.56
Cc1nn(CC(F)F)cc1C(=O)N1CCCc2ccnc(N(C)C)c21 | -8 | 0.95
O=C(NCc1ccccc1)[C@H]1CCN(CC2CC(F)(F)C2)C1 | -21 | 2.24
O=C(O)[C@@H](c1ccc(N2CCCCC2)nc1)N1CCC(N2CCCC2)CC1 | 13 | -1.88
CCCn1nc(C)c2[nH]c(-c3cnn(C(C)C)c3)nc21 | -12 | 1.37
CC(C)n1ccc(CNC(=O)C(=O)Nc2cccc(C#N)c2)n1 | 3 | -0.38
CN1N=C(C(=O)NCCc2ccc3c(c2)OCO3)CCC1=O | -7 | 1.42
COC[C@](C)(CC(=O)OC)NCCOc1cccc(C#N)c1 | -11 | 1.49
COCCn1cncc1CNc1ncnc2onc(C)c12 | 0 | -0.03
CO[C@@]12CC[C@H](O)C[C@@H]1N(C(=O)c1cccc(-n3cnnc3)n1)CC2 | 7 | -1.35

SMILES | % Inhibition [%] | Z score
O=C1N[C@H]2CCC[C@@H]1CN(C(=O)c1cc(Cl)ccc1F)C2 | -5 | 0.9
COc1cc(C(=O)NCCc2ccccc2)cc(OC)c1OCc1ccccc1 | -3 | 0.5
COc1ccc(CC[C@H](C)NC(=O)NCCCN2CCCC2=O)cc1 | 32 | -1.05
COc1ccc(NC(=O)CN2C(=O)CC3(CCCC3)NC2=O)cc1 | -9 | 1.16
COCCN(CC(C)C)C(=O)Nc1ccn(CCc2ccncc2)n1 | -3 | 0.43
COCCNS(=O)(=O)C1CON(C)C1c1cccc(OCc2ccccc2)c1 (stereo not drawn) | 7 | -0.91
CN(C)C1=NC2(CCN(C/C=C/c3ccccc3)CC2)C(=O)N1 | 0 | 0.05
Cc1ccc(Oc2ncccc2CNC(=O)Cc2c[nH]c(=O)[nH]c2=O)cn1 | -2 | 0.46
CN(C[C@H]1CCCOC1)c1ccc(C#N)cc1 | -1 | 0.12
Cc1cc(S(=O)(=O)N2CC[C@H](c3nnc[nH]3)C2)ccc1F | -13 | 1.73
O=S1(=O)CCc2nnc(C3CCCC3)n2CC1 | 3 | -0.62
Cc1ccc(-n2nc(C)c3c2NC(=O)C[C@@H]3c2ccc3c(c2)OCO3)cc1 | -11 | 1.15
CCC1(CC)C(NC(=O)c2cccc(C#N)c2Br)CC1OC (stereo not drawn) | -7 | 0.89
CS(=O)(=O)c1cccc(Br)c1NCCCOC1CCCCC1 | -3 | 0.35
CC1(C)C(=O)NCCN1C(=O)c1nccc2ccccc12 | -14 | 1.42
O=C(c1nc2ccccn2c1-c1ccc(F)cc1)N1CCCCC1 | -8 | 1.25
COCc1cccc(C(=O)Nc2nc(C3CC3)no2)c1 | -3 | 0.63
CNC(=O)[C@@H](C)CN(C)Cc1cc(Br)cc2c1OCC2 | -2 | 0.2
O=C(NCCc1ccccc1F)c1ccc2ccccc2n1 | 1 | -0.11
O=S(=O)(Nc1ccc(-n2cccn2)cc1C(F)(F)F)c1ccc2c(c1)OCCO2 | -2 | 0.34
C[C@H]1CCCCN1C(=O)Cn1cccc1-c1nc(-c2cccc(Cl)c2)no1 | 10 | -1.35

SMILES | % Inhibition [%] | Z score
O=C(N[C@H]1CO[C@@H](CN2CCC(F)(F)C2)[C@@H]1O)C1CCOCC1 | -2 | 0.33
CCN(c1ccncc1)S(=O)(=O)c1cnnn1C | -15 | 2.01
CCc1nsc(NCCN2CCN(C(=O)C3CCCC3)CC2)n1 | 8 | -0.68
Cc1ccc(S(=O)(=O)c2nc(Nc3ccccc3C(N)=O)sc2Cl)cc1 | -1 | 0.11
Cc1ccc(S(=O)(=O)N2CCOCCN(S(=O)(=O)c3ccc(C)cc3)CCN(S(=O)(=O)c3ccc(C)cc3)CC2)cc1 | 4 | -0.64
OCCNc1nc2ccc(Br)cc2c(-c2ccccc2)c1-c1cc(-c2ccccc2)c2cc(Br)ccc2n1 | -12 | 2.02
COc1ccc(C2=Nn3c(C)nnc3-c3ccccc3C2)cc1 | -15 | 1.94
CCc1ncncc1C(=O)NCC(CC)(CC)CO | 32 | -3.61
CC(C)(C(=O)N1CCC(c2ncc(Cl)cn2)CC1)n1cc(N)cn1 | -6 | 1.01
CN(CC(N)=O)Cc1nc(CCc2ccccc2)no1 | -21 | 4.03
Cn1c(Cc2n[n+]3c(-c4ccccc4)cc(-c4ccccc4)nc3n2C)n[n+]2c(-c3ccccc3)cc(-c3ccccc3)nc12 | 95 | -10.43
CC1CN(C2CC2)CC1NC(=O)N1Cc2ccc(Br)cc2C1 (stereo not drawn) | -8 | 1.43
Cc1nc(-c2ccc(NC(=O)C(C)C)cc2)co1 | -10 | 1.47
C=CCN=C(NCc1nnc2n1CCC2)N[C@@H](C)c1ccccc1 | -8 | 0.87
Cn1cc(Nc2cccc(NS(=O)(=O)c3cccc(F)c3F)c2)cn1 | -9 | 1.52
Cc1nnc(OCC2CC(F)(F)C2)s1 | -12 | 1.73
Cc1cnn(C2CCCC2)c1NC(=O)CN1CCCN(C)CC1 | -6 | 1.09
COc1cccc(CS(=O)(=O)Cc2nnc(C3CCC3)n2C)c1 | -4 | 0.63
CC1CN(C(C)C)CC1NC(=O)Nc1cccc2c1CN(C)C2=O (stereo not drawn) | -4 | 0.52
Cc1cccc(CNC(=O)C(C)Oc2ccc3c(c2)C(c2cccc(C)c2)N(C(=O)c2ccccc2)CC3)c1 (stereo not drawn) | 3 | -0.29
CCc1nc(CN(C[C@H]2CCCCO2)C(C)C)n[nH]1 | -16 | 1.81

SMILES | % Inhibition [%] | Z score
CCC(O)(C(=O)Nc1cc(C2CCCO2)n[nH]1)c1cccc(Cl)c1 (stereo not drawn) | -42 | 4.87
Cc1ccc(OCCC(=O)N[C@@H](CC(C)C)C(=O)N(C)C)c(C)c1 | -8 | 1.62
O=C(c1cc(C2CC2)on1)N1CCCc2ccccc21 | -7 | 0.8
COc1ccc([C@H](C)NC(=O)c2c(C)noc2-c2ccccc2C)cc1 | 10 | -1.49
CC(C)c1cc(NCc2cnc(C(C)(C)C)s2)no1 | 3 | -0.44
Cc1cccc(OCc2nc(CN(CCN3CCOCC3)C(=O)NC(C)C)cs2)c1 | -4 | 0.69
COCCn1nc([C@H]2CCCN(C(=O)c3ccc(F)cc3Cl)C2)n(C2CC2)c1=O | -4 | 0.49
O=C(c1ccoc1)N1CCC[C@@H]1Cn1nccn1 | -10 | 1.82
COc1ccc(CN2C(=O)COC[C@H]2C(=O)NC2CCCCCC2)c(OC)c1 | -5 | 0.8
O=C(NCCCC1CCCC1)c1cc2n(n1)C[C@@H](O)CNC2=O | -10 | 1.01
Cc1nc(C)c(CNC(=O)c2cncc(Cl)c2C)s1 | -13 | 1.8
Cc1cccc(Nc2ncc(Cc3ccccc3C)s2)n1 | -13 | 1.9
Cc1ccc(NC(=O)CCNC(=O)[C@H]2CCOC2)cc1 | -10 | 1.63
Cc1[nH]c2ccccc2c1C1C2C(=O)N(c3cccc(Cl)c3C)C(=O)C2ON1c1ccccc1 (stereo not drawn) | -5 | 0.81
O=C(Nc1nnc(C(F)(F)F)[nH]1)[C@H]1CC(=O)N(c2ccccc2)C1 | 0 | -0.01
CCCNC(=O)CCc1c(-c2ccc(Cl)cc2)nc2ccc(-c3cc4ccccc4s3)cn12 | -16 | 1.9
O=C(Nc1ccc(Oc2ccccc2)cc1)C1CCN(C(=O)c2ccc(Cl)cc2Cl)CC1 | -1 | 0.19
Cc1cccc(CNc2cnn(-c3nccs3)c2)c1 | -8 | 0.74
CCNC(=NCc1ccc(Br)cc1OC)NCC | 1 | -0.16
Cc1cc2c(cn1)/C(=C\c1ccccc1)c1ccccc1-2 | -8 | 0.75
CC(=O)NC(=NOCc1ccc(Br)cc1)c1nonc1NC(C)=O | 11 | -1.39
